According to PubChem BioAssay AID588342 (National Center for Advancing Translational Sciences (NCATS), 2011):
Where “and” joins values, the source holds several entries; their conditions need not be identical. Identical values can stand only once. In all, about 360,000 compounds went through this assay and about 25,000 (6.9%) were called active. This list was built around the results that the source calls inconclusive (neither active nor inactive); the mix of calls is not that of the screen. The call rests on the fitted dose curve; in most records, active means well fitted inhibition curve with a large enough effect; inconclusive means small, poorly fitted or top-dose-only effect; inactive means flat fitted curve, though single readings scatter. Where the call is inconclusive, the potency comes from a doubtful curve fit.

Each molecule was assayed against Luciferin 4-monooxygenase (Photinus pyralis) (UniProt P08659) (assay: qHTS profiling assay for firefly luciferase inhibitor/activator using purifed enzyme and Km concentrations of substrates (counterscreen for miR-21 project)). Settings: purified FLuc, luminescence inhibition; series mostly up to 57.5 µM.
UniProt P08659, sequence (P08659 whole entry, looked up): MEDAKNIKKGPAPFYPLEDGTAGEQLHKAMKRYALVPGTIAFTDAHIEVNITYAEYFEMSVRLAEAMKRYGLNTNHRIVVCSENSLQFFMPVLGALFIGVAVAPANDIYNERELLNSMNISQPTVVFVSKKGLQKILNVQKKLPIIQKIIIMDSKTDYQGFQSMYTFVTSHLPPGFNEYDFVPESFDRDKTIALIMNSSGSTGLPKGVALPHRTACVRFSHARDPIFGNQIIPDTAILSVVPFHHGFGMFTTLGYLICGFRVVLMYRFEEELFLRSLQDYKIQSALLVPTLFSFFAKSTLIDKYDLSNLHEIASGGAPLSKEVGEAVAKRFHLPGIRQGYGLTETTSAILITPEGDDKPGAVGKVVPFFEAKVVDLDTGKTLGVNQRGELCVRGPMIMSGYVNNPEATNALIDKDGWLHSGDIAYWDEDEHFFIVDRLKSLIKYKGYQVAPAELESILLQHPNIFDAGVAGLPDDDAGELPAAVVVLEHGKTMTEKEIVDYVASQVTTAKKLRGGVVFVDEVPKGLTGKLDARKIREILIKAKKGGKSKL
Outline: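 Purified P. pyralis luciferase, 10 nM final, with Km-level 10 uM D-luciferin and 10 uM ATP in 50 mM Tris acetate pH 7.5, 10 mM Mg acetate, 0.01% Tween-20, 0.05% BSA; 6-point qHTS titration about 60 µM downward; luminescence read.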
Further: nearly all actives have a fitted effect of over 55% in size.
Potency means the concentration at half of the fitted maximal effect; tags describe the fitted curve by direction and shape.

Q: With `CCCNC(=O)c1csc(Nc2cccc3ccccc23)n1` as the molecule, how does the Potency read?
A: The Potency was inconclusive: 26.9 µM [inhibitor, partial curve, poor fit].

Q: How did the Potency turn out when `COCCNC(=S)N/N=C/c1ccc2c(c1)OCCO2` was run?
A: Its Potency is inconclusive: 21.3 µM [inhibitor, partial curve, poor fit].

Q: How did the Potency turn out when `CCOC(=O)[C@H]1[C@H]2COc3cc(OC)ccc3[C@@H]2N2C(=O)CN(CCc3c[nH]c4ccccc34)C(=O)[C@@]12C` was run?
A: The Potency was “inactive”.

Q: `COc1ccc(Br)c(/C=N/NC(=O)COc2ccc(-c3ccccc3)cc2)c1` was tested. Which Potency did it give?
A: The Potency was inconclusive: 12 µM [inhibitor, partial curve].

Q: Which Potency does the source give for `CC1CCc2c(sc(NC(=O)COC(=O)c3ccc(O)cc3)c2C#N)C1` (configuration not stated) here?
A: Its Potency is inconclusive: 19 µM [inhibitor, partial curve, poor fit].

Q: For `CCC1=NN2C(=N)/C(=C\c3cccn3-c3cccc(Cl)c3)C(=O)N=C2S1`, which Potency is on record?
A: The Potency was inconclusive: 21.3 µM [inhibitor, single point].

Q: Which Potency does the source give for `O=C(O)c1ccc(N=Nc2c(O)[nH]c3cc(Cl)ccc23)cc1` here?
A: Its Potency is active: 0.849 µM.

Q: For `O=[N+]([O-])c1nn(-c2ccc(Cl)cc2)n(O)c1=NCc1cccnc1`, which Potency is on record?
A: Its Potency is inconclusive: 19 µM [inhibitor, partial curve, poor fit].

Q: For `Cc1cc(C(=O)OCC(N)=O)c(C)n1-c1ccccc1`, which Potency is on record?
A: Its Potency is inconclusive: 30.1 µM [inhibitor, partial curve, poor fit].

Q: How did the Potency turn out when `Cc1ccccc1CNC(=O)CN1C(=O)CCCc2ccccc21` was run?
A: The Potency was “inactive”.

Q: `Cc1ccc2scc(N3CCCCC3C)c(=O)c2c1` (configuration not stated) was tested. Which Potency did it give?
A: The Potency was active: 0.953 µM.

Q: For `C=CCn1c(=O)c(C(=O)Nc2ccccc2C)c(O)c2ccccc21`, which Potency is on record?
A: The Potency was inconclusive: 23.9 µM [inhibitor, partial curve].

Q: With `COc1ccc(NC(=O)C(c2ccc(C)cc2)N(C)C(=O)CNC(C)=O)cc1` (configuration not stated) as the molecule, how does the Potency read?
A: Its Potency is “inactive”.

Q: `COc1ccccc1/C=C1\SC(=S)N(CCC(=O)N2CCN(C)CC2)C1=O` was tested. Which Potency did it give?
A: Its Potency is inconclusive: 26.9 µM [inhibitor, partial curve, poor fit].

Q: `COc1ccc(C(=O)/C=C/c2cn(CC(O)CN3CCCCCC3)c3ccccc23)cc1OC` (configuration not stated) was tested. Which Potency did it give?
A: The Potency was inconclusive: 21.3 µM [inhibitor, partial curve, poor fit].

Q: `Cc1ccc(C)c(N2CCN(CCN3CCCCC3)CC2)c1` was tested. Which Potency did it give?
A: The Potency was “inactive”.

Q: With `O=C(Nc1ccc2c(c1)OCCO2)c1ccc(Cl)c([N+](=O)[O-])c1` as the molecule, how does the Potency read?
A: Its Potency is inconclusive: 30.1 µM [inhibitor, single point].

Q: How did the Potency turn out when `Cc1ccc2oc(C(=O)N(C)Cc3ccc(C)o3)c(C)c2c1` was run?
A: The Potency was active: 26.9 µM.

Q: How did the Potency turn out when `Cc1ccc(C(=O)c2oc3ccccc3c2NC(=O)COc2ccccc2C)cc1` was run?
A: The Potency was “inactive”.

Q: How did the Potency turn out when `COc1ccc(NC(=O)CSc2nc3ccccc3nc2N2CCOCC2)c(OC)c1` was run?
A: The Potency was inconclusive: 10.7 µM [inhibitor, partial curve, poor fit].

Q: Which Potency does the source give for `COc1cc(SC)ccc1C(=O)Nc1ccc2c(c1)CCN2S(C)(=O)=O` here?
A: Its Potency is inconclusive: 16.9 µM [inhibitor, partial curve].

Q: For `Cc1ccc(-c2noc(-c3ccc(N4CCOCC4)c([N+](=O)[O-])c3)n2)cc1`, which Potency is on record?
A: The Potency was inconclusive: 26.9 µM [inhibitor, partial curve, poor fit].

Q: `O=C1C(Cl)=C(NC2CCCCC2)C(=O)N1c1ccc(Cl)cc1` was tested. Which Potency did it give?
A: The Potency was active: 4.78 µM.

Q: For `O=C(O)c1cccc(NC(=O)c2ccc(S(=O)(=O)c3ccccc3)cc2)c1`, which Potency is on record?
A: Its Potency is inconclusive: 16.9 µM [inhibitor, partial curve].

Q: `O=C(NCCCc1ccccc1)c1cccs1` was tested. Which Potency did it give?
A: The Potency was inconclusive: 37.9 µM [inhibitor, partial curve, poor fit].

Q: For `CCN(CC)c1ccc(C(=O)NNC(=O)CNC(=O)c2ccco2)cc1`, which Potency is on record?
A: Its Potency is inconclusive: 42.6 µM [inhibitor, partial curve, poor fit].

Q: For `Cc1ccc(-n2cccc2/C=C2/C(=N)N3C(=NC2=O)SN=C3S(C)(=O)=O)cc1Cl`, which Potency is on record?
A: The Potency was “inactive”.

Q: How did the Potency turn out when `COc1ccc(NC(=O)COC(=O)CC2CCCC2)cc1Cl` was run?
A: Its Potency is inconclusive: 30.1 µM [inhibitor, partial curve, poor fit].

Q: `Cc1nnc(N2C(=O)c3oc4ccccc4c(=O)c3C2c2cccc(OCCC(C)C)c2)s1` (configuration not stated) was tested. Which Potency did it give?
A: The Potency was “inactive”.

Q: `COc1cccc(N/N=C/c2cccc(Br)c2O)c1` was tested. Which Potency did it give?
A: Its Potency is active: 6.75 µM.

Q: For `CC(C)(C)c1ccc(C(=O)NCCC(=O)N2CCCC2)cc1`, which Potency is on record?
A: The Potency was active: 9.53 µM.

Q: For `CCCn1c(NCc2cc(OC)ccc2OC)nc2ccccc21`, which Potency is on record?
A: Its Potency is inconclusive: 21.3 µM [inhibitor, single point].

Q: For `CCn1c(SCC#N)nc2ccccc2c1=O`, which Potency is on record?
A: Its Potency is “inactive”.

Q: Which Potency does the source give for `N#CCC(=O)Nc1ccc(C(=O)N2CCN(S(=O)(=O)c3ccc4ccccc4c3)CC2)cc1` here?
A: The Potency was “inactive”.

Q: Which Potency does the source give for `O=C(Nc1ccc(NC(=O)C2CC2)nc1)c1cccs1` here?
A: The Potency was inconclusive: 37.9 µM [inhibitor, single point].

Q: How did the Potency turn out when `O=C(COc1ccc2oc3c(c2c1)CCCC3)Nc1ccccn1` was run?
A: The Potency was active: 1.07 µM.

Q: `Cc1cc(=O)[nH]c2nnc(SCC(N)=O)n12` was tested. Which Potency did it give?
A: Its Potency is “inactive”.

Q: For `CCc1ccc(NC(=O)CCc2c(C)nn(-c3ccc(N4CCCC4)nn3)c2C)cc1`, which Potency is on record?
A: Its Potency is inconclusive: 16.9 µM [inhibitor, single point].

Q: Which Potency does the source give for `O=S1(=O)CCOCCCN1Cc1ccc(Cl)cc1` here?
A: The Potency was “inactive”.

Q: For `COc1ccc(OC)c(Nc2c3ccccc3nc3ccccc23)c1`, which Potency is on record?
A: The Potency was inconclusive: 21.3 µM [inhibitor, single point].

Q: For `COc1ccc(NC(=O)c2cccc3c2C(=O)N(C2CCCCC2)C3)cc1`, which Potency is on record?
A: Its Potency is inconclusive: 15.1 µM [inhibitor, partial curve].

Q: How did the Potency turn out when `COc1cc(C(=O)Nc2nc(OC)c(-c3ccccc3)c(OC)n2)cc(OC)c1OC` was run?
A: The Potency was “inactive”.

Q: How did the Potency turn out when `Cc1nc2c(ccc3c2ccc2nc(C)sc23)s1` was run?
A: The Potency was inconclusive: 2.69 µM [inhibitor, full curve].

Q: Which Potency does the source give for `CCOc1cccc2c1OC1(CCCCC1)N1N=C(c3cccnc3)CC21` (configuration not stated) here?
A: The Potency was active: 19 µM.

Q: Which Potency does the source give for `COc1cc(C(=O)Nc2ccc3nc4n(c(=O)c3c2)CCCCC4)cc(OC)c1OC` here?
A: Its Potency is active: 16.9 µM and active: 13.5 µM.

Q: `c1ccc2[nH]c(SCc3cscn3)nc2c1` was tested. Which Potency did it give?
A: Its Potency is inconclusive: 23.9 µM [inhibitor, partial curve].

Q: For `O=C(Nc1cccc(-n2cnnn2)c1)C1CCCN(Cc2cccc(C(F)(F)F)c2)C1` (configuration not stated), which Potency is on record?
A: The Potency was “inactive”.

Q: How did the Potency turn out when `CN(C)c1cc(N/N=C\c2ccccc2)nc(N(C)C)n1` was run?
A: The Potency was inconclusive: 37.9 µM [inhibitor, partial curve, poor fit].

Q: With `CCC(=O)N1CCCC(C(=O)c2ccc(-c3ccccc3)cc2)C1` (configuration not stated) as the molecule, how does the Potency read?
A: Its Potency is inconclusive: 23.9 µM [inhibitor, single point].

Q: How did the Potency turn out when `CC(C)NC(=O)CC(=O)NN=C1CCCCC1` was run?
A: The Potency was inconclusive: 30.1 µM [inhibitor, partial curve, poor fit].

Q: How did the Potency turn out when `O=C(O)c1cc(-c2cccs2)nc2cc3c(cc12)OCCO3` was run?
A: Its Potency is active: 9.53 µM.

Q: With `Cc1cccc(NC(=S)N(CCc2ccncc2)C(C)C)c1C` as the molecule, how does the Potency read?
A: The Potency was “inactive”.

Q: How did the Potency turn out when `O=C(Nc1ccc(-c2nc3cc(Cl)ccc3o2)cc1)c1cc(Br)ccc1Cl` was run?
A: The Potency was inconclusive: 26.9 µM [inhibitor, single point].

Q: How did the Potency turn out when `O=C(c1ccco1)N1N=C(c2ccccc2)CC1c1ccc2nccnc2c1` (configuration not stated) was run?
A: Its Potency is active: 16.9 µM.

Q: Which Potency does the source give for `CC(=O)Nc1cccc(-c2nnc(SCC(=O)n3c4c(c5ccccc53)CCCC4)n2C)c1` here?
A: Its Potency is inconclusive: 33.8 µM [inhibitor, partial curve, poor fit].

Q: With `CCN(C(=O)CSc1nc2ccccc2c2nc(CCn3c(C)nc4ccccc43)nn12)c1cccc(C)c1` as the molecule, how does the Potency read?
A: Its Potency is “inactive”.

Q: How did the Potency turn out when `CCN(CC)C1CCN(C(=O)c2cc(COc3ccccc3SC)on2)C1` (configuration not stated) was run?
A: The Potency was “inactive”.

Q: `Cc1cc(NC(=O)c2ccccc2)ccc1NC(=O)c1ccccc1Cl` was tested. Which Potency did it give?
A: Its Potency is inconclusive: 13.5 µM [inhibitor, partial curve].

Q: For `CC(C)(C)NC(=O)c1cccc(NC(=O)c2ccco2)c1`, which Potency is on record?
A: Its Potency is inconclusive: 23.9 µM [inhibitor, partial curve, poor fit].

Q: Which Potency does the source give for `COc1ccc2nc(/N=C/c3c(C)[nH]n(-c4ccc(C)cc4C)c3=O)sc2c1` here?
A: Its Potency is active: 26.9 µM.

Q: How did the Potency turn out when `COc1ccc(-c2nnc(SCc3ccccn3)n2C)cc1` was run?
A: Its Potency is inconclusive: 23.9 µM [inhibitor, single point].

Q: `Cc1c(C)c(C)c(S(=O)(=O)NCCC(=O)N2CCN(Cc3ccc(C#N)cc3)CC2)c(C)c1C` was tested. Which Potency did it give?
A: The Potency was “inactive”.

Q: With `CCCCc1cc(=O)oc2c3c(cc(OCC(=O)NCCCO)c12)OC(C)(C)CC3` as the molecule, how does the Potency read?
A: Its Potency is inconclusive: 26.9 µM [inhibitor, partial curve, poor fit].

Q: `CCc1cccc(NC(=O)c2cnc(N3CCOCC3)c3ccccc23)c1` was tested. Which Potency did it give?
A: The Potency was inconclusive: 33.8 µM [inhibitor, partial curve, poor fit].

Q: Which Potency does the source give for `CC1CCN(c2ccc(C(=O)NCCc3ccccc3)cn2)CC1` here?
A: The Potency was active: 23.9 µM.

Q: How did the Potency turn out when `Cc1ccc(CSc2nc(N)cc(N)n2)cc1` was run?
A: Its Potency is inconclusive: 16.9 µM [inhibitor, partial curve].

Q: `CCOC(=O)c1cc(-c2ccccc2)n(CCCC(=O)Nc2ccc(C)c(Cl)c2)c1C` was tested. Which Potency did it give?
A: The Potency was “inactive”.

Q: With `Cc1ccc2occ(-c3cc(-c4ccccc4)nc4c3COc3ccccc3-4)c(=O)c2c1` as the molecule, how does the Potency read?
A: The Potency was “inactive”.

Q: With `CC(=O)NCCNC(=O)c1ccc(CSc2ccc(Cl)cc2)cc1` as the molecule, how does the Potency read?
A: Its Potency is inconclusive: 6.75 µM [inhibitor, partial curve].

Q: `Cc1ccc(C)c(NC(=O)CSc2nc3nccnc3c(=O)n2CCc2c[nH]c3ccccc23)c1` was tested. Which Potency did it give?
A: The Potency was “inactive”.

Q: With `CC(C)n1c(NCc2ccc(Cl)cc2)nc2ccccc21` as the molecule, how does the Potency read?
A: Its Potency is inconclusive: 15.1 µM [inhibitor, partial curve, poor fit].

Q: How did the Potency turn out when `COc1cccc(Cn2nnc(C(=O)NCc3ccccc3Cl)c2N)c1` was run?
A: The Potency was inconclusive: 26.9 µM [inhibitor, partial curve, poor fit].
